# Results reported in PubChem BioAssay AID488969 (Vanderbilt High Throughput Screening Facility, 2010).
# Whole data set: some 110,000 compounds, median “z-score” near -0.1, cut for the highest 2% near 2. Some of the results follow. The source made the active and inactive calls.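 How the source made its calls: active means z-score in the third read window above 3 or below -3; inactive means the rest.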
# Target: Metabotropic glutamate receptor 8 (Rattus norvegicus) (UniProt P70579)
# Experiment: rat mGluR8 modulators via GIRK flux, primary screen, cell-based, thallium flux, HTS (AID 488969)
# Conditions: HEK293 rat mGluR8, GIRK (G protein-gated inwardly rectifying potassium channel) thallium flux, FluoZin2; at 10 µM; stronger effect = higher value; submaximal glutamate (EC20) added with thallium
# UniProt P70579, sequence (P70579 whole entry, looked up): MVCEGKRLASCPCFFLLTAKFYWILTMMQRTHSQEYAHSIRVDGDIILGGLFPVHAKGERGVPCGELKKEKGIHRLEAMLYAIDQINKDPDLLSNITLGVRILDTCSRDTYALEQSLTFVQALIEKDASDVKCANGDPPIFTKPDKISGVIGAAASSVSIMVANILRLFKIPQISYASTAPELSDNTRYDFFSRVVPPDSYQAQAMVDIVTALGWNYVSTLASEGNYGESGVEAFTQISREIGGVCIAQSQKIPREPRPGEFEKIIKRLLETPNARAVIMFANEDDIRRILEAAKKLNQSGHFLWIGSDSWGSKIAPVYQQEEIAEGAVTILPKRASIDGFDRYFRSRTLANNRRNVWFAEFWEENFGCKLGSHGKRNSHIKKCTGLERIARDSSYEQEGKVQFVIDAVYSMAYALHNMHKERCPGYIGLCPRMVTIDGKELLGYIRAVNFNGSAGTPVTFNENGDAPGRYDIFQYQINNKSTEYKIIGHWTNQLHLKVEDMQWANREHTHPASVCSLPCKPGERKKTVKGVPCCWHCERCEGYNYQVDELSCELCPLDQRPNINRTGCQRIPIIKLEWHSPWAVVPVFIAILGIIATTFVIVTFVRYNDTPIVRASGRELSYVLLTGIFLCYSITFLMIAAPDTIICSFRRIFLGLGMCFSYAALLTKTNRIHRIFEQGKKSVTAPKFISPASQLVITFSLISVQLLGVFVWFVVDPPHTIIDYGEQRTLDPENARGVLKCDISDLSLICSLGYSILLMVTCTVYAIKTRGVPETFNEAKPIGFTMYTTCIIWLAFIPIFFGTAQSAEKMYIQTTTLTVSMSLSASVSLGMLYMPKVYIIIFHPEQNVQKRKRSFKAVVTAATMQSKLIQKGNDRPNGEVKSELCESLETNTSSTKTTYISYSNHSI
row,SMILES,z-score
1,CCCCC(=O)Nc1ccc(NC(=O)c2cccnc2)cn1,0.115
2,Cc1ccc2cc(CN(C(=O)c3ccncc3)C(C)C)c(=O)[nH]c2c1,0.449
3,CCC1(C)CC(CC(=O)O)(c2ccccc2OC)CCO1 (stereo not given),0.473
4,CC(=O)c1cnc2nc(C(F)(F)F)nn2c1C,0.218
5,Cn1c2ccccc2c2c(C(=O)NCCCN3CCCC3=O)cn(C3CCCCC3)c(=O)c21,-0.475
6,Cc1ccc(-c2n[nH]c(=O)c3ccccc23)cc1S(=O)(=O)Nc1ccccc1,-0.913
7,CCCn1c(SCC(=O)c2ccc(CC)cc2)n[nH]c1=O,-0.42
8,O=C(NCC(=O)N(Cc1cccs1)C(C(=O)NC1CCCC1)c1cccnc1)c1ccco1 (stereo not given),-0.0892
9,CC(C)c1nc2sc3c(=O)n(N)cnc3c2c2c1COC(C)(C)C2,-0.406
10,CC(NC(=O)c1ccc(N(C)C)cc1)C(c1cccs1)N1CCN(C)CC1 (stereo not given),0.264
11,COc1ccc(/C=C/c2nc(C)c(-c3ccccc3)c(=O)[nH]2)cc1OC,-0.0861
12,CC(C)Oc1ccc(CNC(=S)N/N=C/c2ccc([N+](=O)[O-])cc2)cc1,-0.0872
13,COC(=O)c1ccc(N(C(=O)CNC(=O)c2ccco2)C(C(=O)NC2CCCC2)c2ccco2)cc1 (stereo not given),0.0193
14,Cc1csc(NC(=O)CSc2nc(C)cs2)n1,0.0532
15,CC(=O)NS(=O)(=O)c1ccc(NC(=O)C(Sc2ccccc2)c2ccccc2)cc1 (stereo not given),-0.151
16,C=CCNC(=O)CC(=O)N/N=C/c1ccccc1F,-0.178
17,CCCOc1ccc(-c2nn(-c3ccccc3)cc2/C=C2\SC(N)=NC2=O)cc1,0.0819
18,CCCN(CCC)C(=O)Cn1c(=O)c2ccccc2n2c(=S)sc(-c3ccccc3C)c12,-0.0822
19,CCN(CC)S(=O)(=O)c1ccc(-c2nnc(SCC(=O)Nc3ccc(OC)cc3)o2)cc1,0.249
20,Cc1ccc(-c2nc(C3CCCN(S(=O)(=O)c4ccc(C)cc4)C3)no2)cc1 (stereo not given),0.0801
21,N#CC1=C(N)Oc2ccc3ccc(O)cc3c2C1c1cccnc1 (stereo not given),-0.181
22,Cc1cccc(NC(=O)C2CC(=O)N/C(=N/N=C/c3ccco3)S2)c1 (stereo not given),0.232

row,SMILES,z-score
1,COc1ccc(C)cc1NC(=O)CCC(=O)Nc1nnc(C(F)(F)F)s1,-0.325
2,CCC(C)(C)NC(=O)/C=C/c1ccc(OC)c(S(=O)(=O)N2CCOCC2)c1,-0.0291
3,COc1ccccc1-n1c(C)nc(=O)c(-c2ccccc2)c1C,-0.00621
4,Cc1ccc(C(=O)Nc2ccc(N3CCN(S(C)(=O)=O)CC3)cc2)cc1,0.0119
5,CCCC(=O)Nc1ccc(-c2nc3cc(C)ccc3o2)cc1,-0.316
6,Cc1ccsc1/C=N/n1c(-c2ccco2)n[nH]c1=S,0.377
7,CCOC(=O)N/N=C/c1cn(Cc2ccccc2Cl)c2ccccc12,-0.0664
8,COc1ccc(N2C(=O)CSC2c2ccc3c(c2)OCO3)cc1 (stereo not given),-0.145
9,O=C(CC1COc2ccccc2O1)NCc1ccccc1 (stereo not given),-1.07
10,COc1cc(OC)c(C(=O)OC(C)C(=O)Nc2cccc(C(F)(F)F)c2)cc1OC (stereo not given),-0.492
11,O=C(COC(=O)/C=C/c1cccc(Cl)c1)NCCc1ccc(Cl)cc1Cl,0.84
12,CCOC(=O)c1cc(-c2ccccc2)n(CC(=O)Nc2cc(OC)cc(OC)c2)c1C,0.0746
13,COc1ccc(CC(=O)NC(CC(=O)O)c2ccc(OC)cc2)cc1 (stereo not given),-1.02
14,COc1ccc(N2CCN(C(=O)Cc3ccc(-n4c(=O)[nH]c5ccccc5c4=O)cc3)CC2)cc1,0.819
15,CCN(CC)c1ccc(NC(=O)c2cccc(C)c2OC)c(C)c1,-1.57
16,C=CCCC(=O)Nc1ccc(COC(=O)N2CCOCC2)cc1,-0.0596
17,COc1ccc(C2CCCN2C(=O)Nc2ccc(Cl)cc2)cc1OC (stereo not given),-1.46
18,Cc1nn(Cc2c(Cl)cccc2Cl)c(C)c1N,-0.217
19,Cc1ccc(-n2ncc(C#N)c2/N=C/N(C)C)cc1,0.104
20,CCc1nc(NCc2ccc3c(c2)OCO3)c2oc3ccccc3c2n1,-0.977
21,CCN(CC)S(=O)(=O)c1ccc(C)c(NC(=O)CN(C)C)c1,0.239
22,COC(=O)CCCCCNc1ccc(C(=O)OC)cc1N,-0.131

row,SMILES,z-score
1,O=C(COC(=O)c1ccccc1Cl)NC(=O)NCc1ccccc1,-0.627
2,CC(=O)Nc1cc(-c2ccc(Cl)cc2)nn1-c1ccccc1,0.262
3,COc1ccc(C(=O)Nc2ccccc2-c2nnn(CC(=O)Nc3ccc4c(c3)OCCO4)n2)cc1,-0.257
4,O=C(Nc1ccccc1)OCc1cc(-c2ccccc2Cl)on1,-0.0611
5,Fc1cccc(-c2cc3nc(-c4ccccc4)cc(N4CCC5(CC4)OCCO5)n3n2)c1,-0.324
6,CCOC(=O)CCSc1nc(-c2ccc3c(c2)OCO3)cc(C(F)(F)F)c1C#N,-0.326
7,COC(=O)c1[nH]c2ccc(F)cc2c1NC(=O)CCN1CC(C)OC(C)C1 (stereo not given),-0.0436
8,O=C(Cc1ncc(C(F)(F)F)cc1Cl)N1CCN(c2ccccn2)CC1,0.224
9,N#Cc1c(C(F)(F)F)cc(-c2ccccc2Cl)[nH]c1=O,-1.14
10,Cc1ccc(C)c(-n2cc(-c3ccc(Cl)cc3)nc2SCC(=O)NC2CCS(=O)(=O)C2)c1 (stereo not given),-0.524
11,CCn1nnnc1SCC(=O)N1CCc2ccccc21,0.00286
12,Cc1cc(NC(=O)CN2CCCCC2C)no1 (stereo not given),-0.358
13,Cc1ccc2cc(CN(CC3CCCO3)S(=O)(=O)c3ccccc3)c3nnnn3c2c1 (stereo not given),-0.322
14,CN1CCN(CC(=O)Nc2sc3c(c2C#N)CCC(C(C)(C)C)C3)CC1 (stereo not given),1.67
15,Cc1ccccc1OCC(=O)N1CCCc2ccccc21,-0.249
16,CN(C)CCNC(=O)c1coc(=O)c(Br)c1,0.847
17,CC1CCN(C(=O)Cn2cc3c(n2)CCCC3)CC1,-0.224
18,CC(C)(C)OC(=O)NNC1CC(=O)N(c2ccccc2F)C1=O (stereo not given),0.542
19,O=S(=O)(NCC(c1cccnc1)N1CCN(c2ccccc2)CC1)c1cccs1 (stereo not given),-0.0906
20,COc1ccc(-c2cc(O)cc(O)c2)cc1,-0.182
21,CCn1c(/C=C2\C(=O)N(C)c3ccccc32)nc2ccccc2c1=O,0.0291
22,CC(=O)Nc1sc(/C(C#N)=C/c2ccc(Cl)c(Cl)c2)nc1-c1ccc(C)cc1,-0.0793

row,SMILES,z-score
1,CNC(=O)/C=C/c1cccc(C(F)(F)F)c1,-0.215
2,O=C(Nc1cc(C(F)(F)F)ccc1N1CCOCC1)c1ccccc1,-0.26
3,CCCc1cc(C(=O)Nc2nccs2)cs1,-0.0307
4,CS(=O)(=O)NCc1csc(-c2ccccc2)n1,2.26
5,CSc1cccc(-n2c(C)cc(C(N)=O)c2C)c1,1.15
6,O=Cc1cn(-c2ccc(F)cc2)c2ccccc12,-0.188
7,CCCCC(C(=O)NCCC(C)C)N(CCCN1CCOCC1)C(=O)c1snc(C(N)=O)c1N (stereo not given),-0.0892
8,CCCSc1nc(O)c(C2OC(=O)c3c2ccc(OC)c3OC)c(=O)n1-c1ccccc1 (stereo not given),-0.467
9,COc1ccc(NC(=O)C(=O)NCc2ccncc2)c(OC)c1,-0.236
10,COc1cc(CNC2CCCCCC2)cc(OC)c1OC,-0.324
11,c1ccc(Cc2nnc(-c3ccccc3)o2)cc1,active: 10.4
12,Clc1ccc(-c2nc(N3CCCCC3)nc3ccccc23)cc1,0.231
13,CC(CNS(=O)(=O)c1ccccc1)(c1ccccc1)N1CCOCC1 (stereo not given),-0.324
14,CC1C(c2ccccc2)N(C)C(c2ccccc2)CC1(O)c1ccccc1 (stereo not given),1.27
15,CC(=O)c1cccc(NC(=S)NC(=O)c2cccc(C)c2)c1,active: 7.49
16,O=C(c1ccco1)N1CCN(C(=O)c2ccc(COc3ccc(Cl)cc3Cl)o2)CC1,-0.771
17,COc1ccc(OC)c(CCNC(=O)C2CCN(c3nnc(-n4cccc4)s3)CC2)c1,-0.473
18,COc1ccc(-c2nnnn2CCc2ccccc2)cc1,-0.471
19,COc1ccc(CNC(=O)CN(Cc2ccccc2)C(=O)c2csnn2)cc1,-0.179
20,CCOc1ccc(NC(=O)Cn2cc(C(=O)c3ccco3)c3ccccc32)cc1,0.434
21,COc1ccccc1CNC(=O)CCCNS(=O)(=O)c1cccc2nsnc12,-0.134
22,CCOC(=O)C1=CN(C)C=C(C(=O)OCC)C1c1ccsc1,-0.144

row,SMILES,z-score
1,CC(C(=O)N1CCOCC1)(c1ccccc1)c1ccccc1,-0.156
2,CSc1nc2c(c(=O)n1Cc1ccccc1)SC(C)C2 (stereo not given),-0.479
3,CCCCOc1ccc(N(CC(=O)NCC2CCCO2)C(=O)CCC(=O)Nc2cc(C)ccn2)cc1 (stereo not given),-0.384
4,COc1ccc(NC(=O)CSc2nc(NS(=O)(=O)c3ccccc3)cc(=O)[nH]2)cc1,-0.0529
5,Cc1nnc(NC2=NCCCCC2)o1,0.0841
6,CCOC(=O)CNC(=O)c1cc(-c2ccc3c(c2)OCCO3)oc1C,0.113
7,O=C(c1cc(-c2cccnc2)nc2ccc(Br)cc12)N1CCC2(CC1)OCCO2,0.0607
8,Cc1oc(C(C)(C)C)cc1C(=O)N1CCCC1C(=O)O (stereo not given),0.0366
9,Cc1ccccc1N=C/C=C1/C=C(c2ccccc2)OC(C)(C)O1,0.216
10,Cc1ccc(C(=O)Nc2cccnc2)cc1S(=O)(=O)N1CCOCC1,0.265
11,COc1ccccc1Nc1nc(N)nc(CSc2nncn2C)n1,-0.062
12,O=C(NC(=S)NC1CCCCCCCCCCC1)c1cccnc1,-0.0629
13,C=C(C)c1cccc(C(C)(C)NC(=O)Nn2cnnc2)c1,0.275
14,CCN(CC)S(=O)(=O)c1ccc(-c2nnc(SCC(=O)Nc3cc(OC)cc(OC)c3)o2)cc1,0.363
15,Cc1cccc(CN2C(=O)N/C(=C/c3ccc(C)s3)C2=O)c1,-0.147
16,Cc1onc(-c2ccccc2)c1C(=O)Nc1nnc(N(C)Cc2ccccc2)s1,-0.841
17,CCC(C)NC(=O)CCc1c(C)nc2nc(-c3cc(OC)cc(OC)c3)nn2c1C (stereo not given),-0.148
18,COc1ccc(NS(=O)(=O)c2cc(NC(=O)/C=C/c3cc(OC)ccc3OC)ccc2N2CCCCC2)cc1,0.234
19,Cc1ccccc1OCc1nnc(SCC(=O)Nc2ccc3c(c2)OCO3)n1C,0.679
20,C#CCn1c(=NC(=O)c2cc(Cl)sc2Cl)sc2cc(S(N)(=O)=O)ccc21,-0.0707
21,Cc1ccc(C)c(CSc2nnc(-c3cccnc3)n2N)c1,-0.395
22,O=C(CNc1ccccc1)N/N=C/c1ccc([N+](=O)[O-])o1,-0.389
